Data published in PMC10726135.
The other results are listed elsewhere or left out. At the low end of the ranking, values are background and their order means little. The protein was read in a cell extract, so binding may be indirect.

Target: T1, HNF4alpha2 (COS-7 nuclear extract) (UniProt P41235)
T1 sequence: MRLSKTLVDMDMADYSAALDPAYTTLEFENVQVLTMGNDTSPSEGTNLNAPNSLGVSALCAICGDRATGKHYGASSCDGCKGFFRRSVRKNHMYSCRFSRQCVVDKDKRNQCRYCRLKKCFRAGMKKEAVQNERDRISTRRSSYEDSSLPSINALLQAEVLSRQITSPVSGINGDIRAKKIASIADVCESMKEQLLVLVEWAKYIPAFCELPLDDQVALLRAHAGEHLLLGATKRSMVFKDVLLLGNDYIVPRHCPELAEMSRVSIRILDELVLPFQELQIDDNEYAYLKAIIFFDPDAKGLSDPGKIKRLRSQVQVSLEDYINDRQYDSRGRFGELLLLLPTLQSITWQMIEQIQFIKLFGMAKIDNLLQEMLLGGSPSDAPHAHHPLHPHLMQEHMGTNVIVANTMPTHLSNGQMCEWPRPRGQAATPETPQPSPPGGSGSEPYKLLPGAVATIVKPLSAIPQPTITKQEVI
Experiment: protein-binding microarray
Details: COS-7 nuclear extract on double-stranded Agilent 4x180k PBM; binding buffer, salt, pH and temperature not given; high values mean tight binding; double strand, one strand shown; sequences stand for … in …GCCTAGGGAGATTAGAGTATCGGTCGA

Row | Sequence | binding signal (log2 normalized intensity)
1 | CGCCGGAGAATTAAACTGCCGCGCCACTGC | -1.19
2 | TTTTGCTCTGATCCTAGTCTTTGCCCCACT | 3.81
3 | CCCCTATTAACCAAAGCTACACAGATAAGC | -1.26
4 | GTTCGGGGGACGGAGAGCAGGGCGTGGACT | 0.936
5 | ACAAGTTATTACCGTGATGTTCGTTTGGAT | 1.38
6 | TATGGCCGGCCCCTGGAATGCTGAGGGGGG | -1.17
7 | AAGACATTCCAAGAAGAGCCAATAGTACAC | -0.651
8 | ATTACATAGGAGGCTGCCTCTCTGTGCTGG | -1.14
9 | GAAAATGTCGTTTTCCCGGTTTGTTCCATG | 1.81
10 | GGTTTTACCCTGGGAATGGAGAGAGAGAGA | -0.697
11 | TAGCTGCTAGAGAAAAAGAAAAGCCTTGTG | -1.08
12 | AAATGTACTGGATATAGCCAGATGTCCTTT | 1.79
13 | ATTGGCTTGGCTGTGTCCCTTGACCAAAGG | 2.07
14 | AATACCTGCCGCGCGGGGCGCCTCCCGGAG | -1.14
15 | TGGGAGACATTCCTTCAGCGTGAACTTTGA | 6.72
16 | CAAATGACAGAAGCAGGACTTAAACACCAG | -1.17
17 | GGCTTGGCAGTCTGGTGCCAAGGAGCCTCT | -0.449
18 | TTATCTCCCCAGCTTACAATTCCAATGAGA | 0.806
19 | GCCACACTGGTTCCTGCACCCGGGCAGCCT | -1.13
20 | CTTTCCGTACTTTTCATCTGATCAGTGCCC | 2.37

Row | Sequence | binding signal (log2 normalized intensity)
21 | CCAGCGAGGTTATTTCACCCCAGCAAACAG | 0.674
22 | TCAGAGGCTCACAGAGAGGCTTCTGGCCAG | -0.999
23 | GACTTTCAACAGAGGGCCTCTAGCCCAATA | -1.18
24 | AGCGGGGTTTGAATCCCGGGAATCCTCAGC | -1.17
25 | TCATTGCAATTACTCAATAACCACATGAAT | -1.27
26 | GCACCGTGTGCTTTGTAGCACTTTGGACCT | 6.42
27 | CCTTGACACATCTGATTAGAGGCTCAGGTA | -0.794
28 | CCCTCGGGCCGGGAAACGCCCTCGGCGCGC | 1.16
29 | AGCTTGTCCAGAGTAGGCTTGCAAGACTGC | -0.856
30 | ACCTTGTGCAGTATCCCAGGGACTTACTCA | -0.811
31 | CGGGAGCATAGCAGCGAGGACAACCAGAGG | -1.05
32 | ATGCCTTTCATCTTTGAGAAAACTCCAAAG | -0.956
33 | CCCAGCGGTTCCGGGCGGCAGCACAAGGCG | -0.917
34 | ACCCAGGGGACGGAAGTTGCAGTGAGCTAA | -1.07
35 | AGAGGGTATACTATTTGCTAATGTCCTTTG | 2.41
36 | ATACTTTGACTGAGACTGCCTCAAACAGCT | -1.19
37 | AGGGAGATGGATATATGTACAGCTGTGTAT | 1.19
38 | AGCAAGATGACTTTGGTCTAGACACAGACT | -0.984
39 | CAAATTGCTGACTTTCTGTGTCTTGGCAGT | 1.59
40 | CACAGAGGACGTCAGGCAGAGAGGGACTCT | -1.12
